# From PubChem BioAssay AID463173 (ICCB-Longwood Screening Facility, Harvard Medical School, 2010)
# About 1,700 (3.3%) of roughly 52,000 compounds were called active. No stated cut-off is given here; in the data, active means survival mostly below about 52% (no sharp cut-off); inactive means mostly above about 56%. Some of the results follow.
# Test system: Wild type
# Test: growth inhibition of S. aureus wild type versus tarO mutant, primary screen, teichoic acid synthesis inhibitors, RN4220, OD600 (AID 463173)
# Conditions: S. aureus RN4220 wild type/DeltatarO growth, OD600, 18 h, active compounds read low, screened at 18.75 µg/mL (by protocol)
row,Structure (SMILES),survival
1,c1ccc(Cn2nnc3c(N4CCCC4)ncnc32)cc1,inactive: 97%
2,Cc1cccc(CC(C(=O)Nc2ccccc2)c2nn[nH]n2)c1 (stereo not drawn),inactive: 107%
3,CCOc1ccc(NS(=O)(=O)c2ccc3[nH]c4c(c3c2)CCCC4)cc1,inactive: 64%
4,Cc1nn2c(=O)cc(COC(=O)c3cccc(NC(=O)c4cccs4)c3)nc2s1,inactive: 80%
5,Cc1cccc(N(C)S(=O)(=O)c2cc3c(cc2Cl)NC(=O)CO3)c1,inactive: 75%
6,COc1ccc(N(CC(=O)N2CCN(c3cccc(C)c3C)CC2)S(=O)(=O)c2c(C)noc2C)cc1,inactive: 83%
7,COc1ccc(-c2cn3nc(N4CCC(C(=O)Nc5cccc(C)c5C)CC4)sc3n2)cc1,inactive: 60%
8,COc1ccc2nc(N(Cc3cccnc3)C(=O)c3ccc4c(c3)OCCO4)sc2c1,inactive: 65%
9,Cc1ccc(CNS(=O)(=O)c2ccc3c(c2)CCN3S(C)(=O)=O)cc1,inactive: 87%
10,O=C(O)COc1ccccc1/C=N\n1cnnc1,inactive: 105%
11,CCCSc1ncc(Cl)c(C(=O)Nc2sc3c(c2C(=O)NCCOC)CCCC3)n1,inactive: 107%
12,Cc1c(Cl)cccc1NC(=O)CSc1nc(=O)n(Cc2ccccn2)c2c1CCC2,inactive: 119%
13,CCCCOC(=O)c1ccc(NC(=O)c2cc3c(=O)n4cccc(C)c4nc3n2C)cc1,inactive: 85%
14,O=C(Nc1ccc(F)cc1F)c1cc(-c2ccccc2O)no1,inactive: 89%
15,Cc1ccc(NC(=O)Cn2c(=O)n(CCCCC(=O)NCCc3ccccc3)c(=O)c3ccccc32)c(C)c1,inactive: 106%
16,Cc1nn2c(=O)cc(COC(=O)c3ccc(NC(=O)C4CCCCC4)cc3)nc2s1,inactive: 124%
17,COc1cc(NC(=O)Cn2nc(C(F)(F)F)c3c2CCCC3)c(OC)cc1Cl,inactive: 87%
18,COCCNC(=O)CCCn1c(=O)c2cc(OC)c(OC)cc2n(CC(=O)Nc2ccc(F)cc2)c1=O,inactive: 87%
19,O=C(COc1ccccc1Cl)Nc1ccc2oc(-c3ccccc3F)nc2c1,inactive: 81%
20,COc1ccccc1OCC(O)CN (stereo not drawn),inactive: 107%

row,Structure (SMILES),survival
1,CC1CC(C)CN(c2c3c(nc4cc(-c5ccc(F)cc5)nn24)CCC3)C1 (stereo not drawn),inactive: 101%
2,CNC(=O)C1=C(C)NC(=O)NC1c1cccs1 (stereo not drawn),inactive: 99%
3,CCOC(=O)C1CCN(CCC(=O)Nc2ccc(Br)c(C)c2)CC1,inactive: 69%
4,O=C(CSc1nc(=O)[nH]c2c1CCCC2)Nc1ccccc1C(F)(F)F,inactive: 132%
5,Cc1ccc(NC(=O)C(NS(=O)(=O)c2ccc3c(c2)CCC(=O)N3)c2ccccc2)cc1C (stereo not drawn),inactive: 95%
6,CCOc1ccc(CNC(=O)c2ccc(-c3nc(CS(=O)(=O)c4ccccc4)c(C)o3)cc2)cc1,inactive: 67%
7,COc1ccc(NC(=O)c2nnn(Cc3nc(-c4cc(Br)ccc4OC)oc3C)c2C)cc1,inactive: 67%
8,CCOc1cccc(C2c3c(oc4ccc(F)cc4c3=O)C(=O)N2CCc2ccc(OC)cc2)c1 (stereo not drawn),inactive: 78%
9,c1cn(CCCNc2ncnc3sc4c(c23)CCCCC4)cn1,inactive: 109%
10,COc1ccc(Nc2cc(C(=O)NC3CCCC3)c3ccccc3n2)c(OC)c1,inactive: 82%
11,CCNC(=O)Cn1c(-c2cccs2)cc2ccccc21,inactive: 74%
12,Cc1ccc(CN(C(=O)Nc2cccc(Cl)c2)c2ccccn2)cc1,inactive: 79%
13,COc1ccc(NC(=O)C2CCN(S(=O)(=O)c3ccc4c(c3)CCCC(=O)N4)CC2)cc1Cl,inactive: 77%
14,Cc1cc(C)nc(NCC(O)COc2ccccc2C)n1 (stereo not drawn),inactive: 111%
15,Cc1oc(C)c2c(=O)cc(-c3ccc4c(c3)OCO4)cc(OC(=O)c3ccccc3Br)c12,inactive: 104%
16,CCn1ccc2cc(S(=O)(=O)N3CCCN(C(=O)NCC(C)C)CC3)ccc21,inactive: 75%
17,COc1cc(OC)c(NC(=O)c2cc(CN3CCOCC3)on2)cc1Cl,inactive: 71%
18,COc1ccc(S(=O)(=O)N2CCN(c3ccccc3OC)CC2)cc1-c1noc(C)n1,inactive: 122%
19,Nc1ccc(CNc2ncn[nH]2)cc1,inactive: 120%
20,COc1ccc(Cn2nnnc2C(C(C)C)N2CCc3ccccc32)cc1 (stereo not drawn),inactive: 111%

row,Structure (SMILES),survival
1,Cc1ccc(Cn2c(-c3ccccc3)nc3ccccc32)cc1,active: 8%
2,Cc1ccc(-c2nc3ccccc3n3c(-c4ccccc4)c4c(=O)n(C)c(=O)n(C)c4c23)cc1,inactive: 95%
3,CCOc1ccccc1NC(=O)Cn1ccn(-c2ccccc2)c(=O)c1=O,inactive: 82%
4,COc1ccccc1N1CCN(c2csc3ccc(Cl)cc3c2=O)CC1,inactive: 138%
5,CCCCNC(=O)c1cc(Sc2ccc(OCC)cc2)nc2ccccc12,inactive: 66%
6,Cc1ccc(C)c(Cn2c(=O)n(CCCCC(=O)NCc3ccccc3Cl)c(=O)c3ccccc32)c1,inactive: 127%
7,CCn1ccc2cc(S(=O)(=O)N3CCC(C(=O)NCc4cccc(C)c4)CC3)ccc21,inactive: 53%
8,Cc1ccc(-c2c(C(=O)Nc3ccc(F)c(F)c3)oc(=O)c3ccccc23)cc1,inactive: 92%
9,O=C(NCCSCc1ccc(Cl)cc1)C1CCN(S(=O)(=O)Cc2ccccc2)CC1,inactive: 83%
10,CCn1cc(C(=O)NCc2ccc(C)cc2)c(=O)c2cc(S(=O)(=O)N3CCC(C)CC3)ccc21,inactive: 128%
11,CN(C)c1ccc(CNC(=O)c2cc3cc(S(=O)(=O)N4CCCCC4)ccc3n2C)cc1,active: 0%
12,O=C(CN1C(=O)C2CCCCN2c2ccc(C(=O)N3CCCC3)cc21)NCc1cccc(Cl)c1 (stereo not drawn),inactive: 54%
13,Cc1ccc(Cl)c2sc(NC(=O)CS(=O)(=O)c3ccc(Cl)cc3)nc12,inactive: 90%
14,CCOc1ccc(CNS(=O)(=O)c2c(C(=O)N3CCCCCC3)c(C)n(C)c2C)cc1OC,inactive: 68%
15,Cc1ccc(CNC(=O)Cc2coc3cc(C)cc(C)c23)cc1,inactive: 119%
16,COc1ccc(C=Nc2ccc3[nH]ncc3c2)c(O)c1,inactive: 88%
17,Cc1ccc(NC(=O)Nc2nnc(N3CCCC3)s2)c(C)c1,inactive: 86%
18,CCN(CC)S(=O)(=O)c1ccc2c(c1)c(=O)c(C(=O)NCc1ccccc1)cn2C,inactive: 76%
